The values that follow come from PMC3698097.

No constants are given. Whether binding was seen depends on the method and setting. Binding seen in cells or lysates may run through a third protein. Some entries that bind do so weakly or less than the wild type. Tags and fused reporters may be left off the sequences shown.

The target of assay [1] is T1, Sip1ΔN-GST (C-terminal region of Sip1 lacking the N-terminal 1414 amino acids, fused to GST) (Schizosaccharomyces pombe) (UniProt O42998).
T1 sequence: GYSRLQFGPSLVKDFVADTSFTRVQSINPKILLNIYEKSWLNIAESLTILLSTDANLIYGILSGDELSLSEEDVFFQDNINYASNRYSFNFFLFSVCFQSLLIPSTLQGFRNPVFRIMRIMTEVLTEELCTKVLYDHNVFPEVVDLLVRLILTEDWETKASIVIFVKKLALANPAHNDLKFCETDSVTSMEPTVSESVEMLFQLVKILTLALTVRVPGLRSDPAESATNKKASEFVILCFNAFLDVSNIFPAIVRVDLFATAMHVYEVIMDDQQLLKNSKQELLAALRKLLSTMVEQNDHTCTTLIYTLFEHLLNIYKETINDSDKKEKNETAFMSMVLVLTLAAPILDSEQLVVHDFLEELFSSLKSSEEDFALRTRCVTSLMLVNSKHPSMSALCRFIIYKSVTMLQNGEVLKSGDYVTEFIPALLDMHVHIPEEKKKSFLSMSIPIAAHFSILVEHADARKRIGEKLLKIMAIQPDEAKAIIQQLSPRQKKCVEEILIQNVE
Put plainly: pull-down; purified GST fusion protein (or GST) from S. pombe, nmt1 promoter, incubated with lysates of S. pombe cells expressing GFP-fused proteins; precipitated with glutathione beads, washed extensively, SDS-PAGE, immunoblot with anti-GFP or anti-GST antibodies; only the target purified.

The target of assay [2] is T2, Apm1-GST (full-length Apm1 fused to GST) (Schizosaccharomyces pombe) (UniProt Q9HFE5).
T2 sequence: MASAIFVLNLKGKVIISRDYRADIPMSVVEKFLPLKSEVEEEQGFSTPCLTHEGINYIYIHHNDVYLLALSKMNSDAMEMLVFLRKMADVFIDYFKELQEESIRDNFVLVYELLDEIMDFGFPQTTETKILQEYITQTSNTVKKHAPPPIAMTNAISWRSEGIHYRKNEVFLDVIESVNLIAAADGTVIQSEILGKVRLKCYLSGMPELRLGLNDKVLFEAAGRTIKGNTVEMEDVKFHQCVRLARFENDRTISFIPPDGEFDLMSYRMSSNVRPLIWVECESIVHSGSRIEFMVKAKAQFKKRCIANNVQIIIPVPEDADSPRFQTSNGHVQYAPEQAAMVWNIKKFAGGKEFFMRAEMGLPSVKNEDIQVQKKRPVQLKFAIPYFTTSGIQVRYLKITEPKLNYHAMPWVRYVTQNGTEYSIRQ
The description is as above.

Assay [3] concerns the target GST-Sip1 (full-length Sip1 fused to GST) (Schizosaccharomyces pombe) (UniProt O42998). The assay is described as above.
The target of assay [4] is T2, Apm1-GST (full-length Apm1 fused to GST) (Schizosaccharomyces pombe). Put plainly: pull-down; Apm1-GST expressed in wild-type cells (and in sip1-i4 cells with Sip1ΔN expressed from the nmt1 promoter, where binding was significantly rescued); lysates of cells expressing GFP-Rho3 incubated with purified full-length Apm1-GST; glutathione beads, SDS-PAGE; only the target purified.

B1: Apl2 fused to GFP (subunit of the AP-1 complex) (protein, UniProt O43079 1-683)
chain: MVPKLFQSSRFKAFKKSETSELQKGLVSQYAYERIDAVKRTIAAMTVGKDVSSLFPDVLKNLATRDITLKKLVYLYLINYAKTHPDLCILAVNTFVKDSEEYNPTLRALAIRTMGCIRVNKIIGYLADPLRKALKDEHPYVRKAAAVCVVKMYDLDREYCASNGFIEQLQALVSDPNPVVVANAVRSLAEIHDQDPEKGYFNVVYTMTDRLMVALSECNEWGRITILNSLARFRTSDIKEAEYVCERVVPQFQHANSGVVLSAVKVIMVHIPLFSSDFTDFLYKKMAPPLLTLLSTDSEIQYVALRNINLILQKRPSIFDVKTRVFFCKYNDPLYIKMEKLKIITMLACDENINETISELRAYVSEVELEFVKQTIKCLGDVALKVPSVINDCISIFLEIYELNISYMVQEVTVVMETVLRKYPQKIDLLLPYLSRVIEELGDPRARSSMAWILGEFSHVIPTSSKLLSEMISTMADEDLQIQLALLTAVVKLSLMNGKGNDEELVQKVLNYAINQSSNQDLRDRAFAYQRLLTPENVRKAQKIVCCEKPSVSYNNNLPEALLDALLCEITTLASVYHKLPESFIGQGKFGADAIQRRAVEELNIEEANVHEAIEKGANVENLLDLDFTDPGATSASDSPITSAQPQSGSNSAMDLFMAFEAPSTNNAEPVKARSATDDLLGL
As to B1, the binding entry in assay [1] is listed as “binds”.

B2: Aps1 fused to GFP (subunit of the AP-1 complex) (protein, UniProt Q9P7N2 1-162)
chain: MSIKFFLLVSRQGKVRLAKWFNTLSIKERAKIIRDVSSLVITRKPKMCNFVEYKGEKIVYRRYASLFFVCGIEQDDNELIILEVIHKFVECLDKYFGNVCELDLIFNFEKAYYVMEELLLAGELQESSKTNVLSAVLAGDAESEADAQQDSLQKLVGSVKKR
For B2, in assay [1], the binding entry is “binds”.

B3: Apm1 fused to GFP (subunit of the AP-1 complex) (protein, UniProt Q9HFE5 1-426)
chain: MASAIFVLNLKGKVIISRDYRADIPMSVVEKFLPLKSEVEEEQGFSTPCLTHEGINYIYIHHNDVYLLALSKMNSDAMEMLVFLRKMADVFIDYFKELQEESIRDNFVLVYELLDEIMDFGFPQTTETKILQEYITQTSNTVKKHAPPPIAMTNAISWRSEGIHYRKNEVFLDVIESVNLIAAADGTVIQSEILGKVRLKCYLSGMPELRLGLNDKVLFEAAGRTIKGNTVEMEDVKFHQCVRLARFENDRTISFIPPDGEFDLMSYRMSSNVRPLIWVECESIVHSGSRIEFMVKAKAQFKKRCIANNVQIIIPVPEDADSPRFQTSNGHVQYAPEQAAMVWNIKKFAGGKEFFMRAEMGLPSVKNEDIQVQKKRPVQLKFAIPYFTTSGIQVRYLKITEPKLNYHAMPWVRYVTQNGTEYSIRQ
As to B3, in assay [1], the binding entry is listed as “binds”.

B4: GFP-Rho2 (GFP-fused Rho2) (protein, UniProt Q10133 1-200)
chain: MLQSQPIRRKLVVVGDGACGKTSLLSVFTLGYFPTEYVPTVFENYVSDCRVDGKSVQLALWDTAGQEEYERLRPMSYAKAHIILVGFAIDSPDSLENVSTKWIEEINTLCPNVPFILVGMKADLRSDPVAIEEMRRRNQNFVKSQQAELVAQRIGARKYMECSSLTGDGVDDVFEAATRAALTVRDSENDKSSTKCCIIS
Regarding B4, the binding result in assay [2], in assay [3] and in assay [1] was “no binding” in each case.

B5: GFP-Rho3 (wild-type Rho3 fused to GFP) (protein, UniProt O13928 1-205)
chain: MSSCFGSKKKPIYRKIVILGDGAAGKTSLLNVFTKGYFPQVYEPTIFENYIHDIFVDGNSIELSLWDTAGQEEYDQLRSLSYSDTHVIMICFAVDSRDSLENVITKWLPEVSSNCPGVKLVLVALKCDLRGADEEQVDHSKIIDYEEGLAAAKKINAVRYLECSAKLNRGVNEAFTEAARVALAAQPRGTKDGADESHGTGCIIA
B5: the binding entry in assay [4], in assay [3] and in assay [1] was “binds” throughout.

B6: GFP-Rho3E48V (effector domain mutant of Rho3 fused to GFP) (protein, UniProt O13928 1-205)
chain: MSSCFGSKKKPIYRKIVILGDGAAGKTSLLNVFTKGYFPQVYEPTIFVNYIHDIFVDGNSIELSLWDTAGQEEYDQLRSLSYSDTHVIMICFAVDSRDSLENVITKWLPEVSSNCPGVKLVLVALKCDLRGADEEQVDHSKIIDYEEGLAAAKKINAVRYLECSAKLNRGVNEAFTEAARVALAAQPRGTKDGADESHGTGCIIA
Regarding B6, the binding result in assay [3] and in assay [1] was “binds” each time.

B7: GFP-Rho3G22V (GTP-locked variant of Rho3 fused to GFP) (protein, UniProt O13928 1-205)
chain: MSSCFGSKKKPIYRKIVILGDVAAGKTSLLNVFTKGYFPQVYEPTIFENYIHDIFVDGNSIELSLWDTAGQEEYDQLRSLSYSDTHVIMICFAVDSRDSLENVITKWLPEVSSNCPGVKLVLVALKCDLRGADEEQVDHSKIIDYEEGLAAAKKINAVRYLECSAKLNRGVNEAFTEAARVALAAQPRGTKDGADESHGTGCIIA
For the molecule B7, the binding entry in assay [3] and in assay [1] was “binds” each time.

B8: GFP-Rho3T27N (GDP-locked variant of Rho3 fused to GFP) (protein, UniProt O13928 1-205)
chain: MSSCFGSKKKPIYRKIVILGDGAAGKNSLLNVFTKGYFPQVYEPTIFENYIHDIFVDGNSIELSLWDTAGQEEYDQLRSLSYSDTHVIMICFAVDSRDSLENVITKWLPEVSSNCPGVKLVLVALKCDLRGADEEQVDHSKIIDYEEGLAAAKKINAVRYLECSAKLNRGVNEAFTEAARVALAAQPRGTKDGADESHGTGCIIA
Regarding B8, the binding result in assay [3] and in assay [1] was “binds” in each case.

B9: Apl4 fused to GFP (subunit of the AP-1 complex) (protein, UniProt Q9UU81 1-836)
chain: MSSLKSFIKAVRASKTTAEEHTTILKESAQIRKNIRQGSNDMRMRRKNVAKLLYLFLLGEPTHFGQIECLKLLSSSRFMDKRLGYLAAMLLLDENQEVLTLLTNSLQNDLKSRDKFIVGLALSAFGNVAGPELARDLSNDIAELCSNHHNYISKKAVLCALRVIQKEPDLESLYIEKTDELLHSKSHGVLMAALAFAISACKINPSLISRFESQADDLIYRIRQLSTSTYSSEHNIGNISDPFLQVKILQFLSILGQNNPKIYDKMSDLLAQVCTNTDSSRNAGNAILYQAVRTILDLNSDSSLRVLGVNILAKFLGNRDNNTRYVALNMLKLVVNSEENAVQRHRSTILACLNDVDSSIQSRALELSTFLVNEANVRFMVRELLSFLDNVSDELRGSTAQYITEVTNAFAPNKRWHFDTLLRVFKSAGNFVSESTLSTFLRLIASAPELHEYAVVKLYAALKEDVSQEALTLSAFWVIGEYGQMLLSPTMNFDDDQTLPHSVSESDIVDIIEEVFNSVEASRYIIVQYGLFALTKLSARLGSSSTASRIDKIIYSYKRNKNTEVQQRSVEFHLILNDSKLSKTILEPTPAPLPPPRTTPYQNAEQKLKANKHVEKRVQESNELLDLIGLTTPSVAEPLETPVDEMTQSPQSSLSRAPSTSKKSHFEDILGLFASPAPSAQPVDSLASSFASLDFNASASQPSNNLSLLSSIPSTSKSYPPIVVFDKHDVTLTLVPSKEESTKTAVIEAKFKNKNPMTRVEKIHLEVAVPKSQKLKIQPLRTTSMEPGGETSQTLRVHGPSGSQVKLRLRISVVRQGGSNTLDQVDFGKLPSDLLQ
For the molecule B9, the binding result in assay [1] is “binds”.
